As a reminder, the EC50 is the midpoint of the concentration-response curve.

For assay [1], the system named is Flu A (H1N1) New Caledonia/20/99. The settings on record: MDCK cells, continuous exposure.
Assay [2] deals with Flu A (H3N2) California/7/04. The following applies: MDCK cells, continuous exposure.

Where two headings read alike, the source gives them in different places.

Take `CCCCN1C(=O)CC(=O)N(CCCC)C1=S` [Compound C1, 4,6(1H, 5H)-Pyrimidinedione, 1,3-dibutyldihydro-2-thioxo]: the concentration for a half-maximal effect (EC50) in assay [1] (Neutral Red) is over 3.2 µg/mL; in assay [1] (Visual), 3.2 µg/mL; in assay [2] (Neutral Red), 3.2 µg/mL; in assay [2] (Visual), 3.2 µg/mL.

Source of the values: patent publication US20070259903A1 (priority 2006, published 2007).
